Data as given in the supplement of paper PMC3334620.
The full ranking holds about 33,000 sequences; the median of “E-score (-0.5 to 0.5)” is about -0.043, and the highest 2% start at about 0.37. The list shows a part of the results.

biological target: T1, Upc2 (UniProt Q12151); test: PBM E-score (8-mer binding enrichment) (E-score (-0.5 to 0.5)); higher = stronger / more preferred TF binding; most listed sequences are background and not binding sites; conditions: protein concentration: 200 nM; construct: GST-full length
T1 sequence: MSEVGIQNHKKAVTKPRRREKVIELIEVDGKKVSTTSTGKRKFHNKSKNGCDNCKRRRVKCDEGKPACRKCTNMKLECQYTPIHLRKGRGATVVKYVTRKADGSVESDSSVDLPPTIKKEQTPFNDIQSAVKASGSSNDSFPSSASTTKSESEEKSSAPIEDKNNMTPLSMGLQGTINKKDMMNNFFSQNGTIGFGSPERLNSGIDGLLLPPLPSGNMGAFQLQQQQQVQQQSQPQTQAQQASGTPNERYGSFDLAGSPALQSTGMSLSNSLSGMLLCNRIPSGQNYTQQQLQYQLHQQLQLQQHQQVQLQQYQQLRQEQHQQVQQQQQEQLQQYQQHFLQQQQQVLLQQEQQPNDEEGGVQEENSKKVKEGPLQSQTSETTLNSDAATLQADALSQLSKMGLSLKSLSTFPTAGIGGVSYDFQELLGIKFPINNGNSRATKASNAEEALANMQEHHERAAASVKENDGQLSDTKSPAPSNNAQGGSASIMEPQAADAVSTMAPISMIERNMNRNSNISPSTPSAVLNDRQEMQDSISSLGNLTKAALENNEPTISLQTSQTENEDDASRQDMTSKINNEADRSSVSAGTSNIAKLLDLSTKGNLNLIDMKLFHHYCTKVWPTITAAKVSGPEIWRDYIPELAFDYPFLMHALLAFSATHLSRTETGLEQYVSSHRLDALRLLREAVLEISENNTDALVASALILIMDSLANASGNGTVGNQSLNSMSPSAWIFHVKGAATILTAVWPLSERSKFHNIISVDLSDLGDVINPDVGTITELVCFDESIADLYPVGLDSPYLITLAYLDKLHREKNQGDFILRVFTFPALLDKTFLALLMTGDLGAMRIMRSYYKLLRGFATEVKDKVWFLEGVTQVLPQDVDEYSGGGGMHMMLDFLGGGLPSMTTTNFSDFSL
Procedure, shortened: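 Each ungapped eight-base word and its reverse complement, pooled, received an E-score from the Universal PBM Analysis Suite. Underlying scans, normalised with masliner, recorded fluorescent anti-GST bound to GST-tagged yeast transcription factors. These were applied at about 100-200 nM to universal all-10-mer Agilent arrays double-stranded by primer extension.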

| Sequence | PBM E-score |
| --- | --- |
| ATCGGTGC | -0.154 |
| AATCATTC | -0.057 |
| ACTTACCG | 0.122 |
| CACCTGTA | -0.0954 |
| GGAGGCAC | -0.177 |
| ATACAAAG | 0.0473 |
| GCACACGA | 0.2 |
| CGAGGGCA | 0.178 |
| ATCGCTAA | 0.192 |
| ACGCATGG | -0.0496 |
| GATATCGC | 0.159 |
| ACGTACGG | 0.354 |
| GAATAGAA | 0.0261 |
| AGACCGAA | 0.0322 |
| CTGCTAAG | -0.316 |
| AAGCCGTA | 0.297 |
| GTGGGTCA | -0.327 |
| AAGGCAGT | -0.121 |
| AAGGCATA | -0.152 |
| GCCGCTAA | -0.191 |
| AGCTGTAC | 0.113 |
| ATTCATGG | -0.114 |
| ACCTGCAA | -0.126 |
| CAATTCTA | -0.0282 |
| CGCCAAGA | -0.191 |

| Sequence | PBM E-score |
| --- | --- |
| ATACATGA | -0.00058 |
| CCCATGGA | -0.308 |
| CATTGAAA | 0.0183 |
| GCACCACA | -0.157 |
| TAACGAGA | 0.391 |
| AGCACCAG | -0.202 |
| CCGCCTCC | -0.173 |
| CGACCTTA | 0.21 |
| AAGTTCTA | -0.0405 |
| AATAGGTA | 0.0405 |
| AAAACCAT | 0.0109 |
| AGATGTGC | 0.0112 |
| TTATTGAA | -0.0656 |
| CGGTGGCA | -0.0903 |
| ACACTGGG | -0.243 |
| ATATCTTA | -0.0407 |
| ACGCCAGG | -0.133 |
| AACTTACT | -0.0916 |
| GGAATGCC | -0.186 |
| TCATCTCA | -0.119 |
| CCGATGTC | -0.0348 |
| CAGCTAAC | -0.245 |
| CGCTTGTA | 0.118 |
| GAGTCACC | -0.222 |
| ACCTAGGA | -0.0958 |

| Sequence | PBM E-score |
| --- | --- |
| GCCGGCAA | -0.0326 |
| AAAGGGAG | -0.166 |
| CTATTGTA | -0.00999 |
| ACGTCCAG | -0.12 |
| AGAAGACT | -0.177 |
| ATAATTTA | 0.121 |
| TACGTTAA | 0.342 |
| AGAATCTC | 0.0559 |
| CGTACCCA | 0.376 |
| GCTCATTA | -0.102 |
| ATTACGGC | 0.0941 |
| GTTGGAAA | -0.103 |
| CATTTGCG | 0.0794 |
| AGTGCGAA | -0.145 |
| CTAGCCAA | -0.198 |
| AATACTCT | -0.0687 |
| ATCCCTCA | -0.209 |
| AGGCATAT | 0.0852 |
| ATAGGAAC | 0.068 |
| CCGGCCCG | -0.101 |
| GGTATACA | -0.0256 |
| AAACAGAG | -0.0281 |
| ATACCTTG | -0.125 |
| CAGAGTTA | -0.2 |
| CGACCGTA | 0.373 |

| Sequence | PBM E-score |
| --- | --- |
| ACGATTGA | 0.27 |
| CCACCCGA | 0.0204 |
| GGGTTCCA | -0.218 |
| ACTGCAGG | -0.156 |
| GAGCCCTC | 0.022 |
| GTGCTATA | 0.128 |
| CTTCAAGC | -0.16 |
| CCGTCACC | -0.152 |
| ACATCAGG | -0.0958 |
| AGAGGGCT | -0.325 |
| AACGTTCT | 0.222 |
| ATGCCATA | -0.001 |
| ACGGAAGT | 0.146 |
| CGGATGTC | 0.164 |
| AGGATACT | -0.157 |
| ACGCATTA | -0.00997 |
| AGAATAGA | -0.17 |
| ACCAGCAT | -0.171 |
| ATTTAGGG | 0.0094 |
| GATTGCTA | 0.0207 |
| AGCCCTTG | -0.26 |
| TAGATCGA | -0.0729 |
| GGGAGAAC | -0.218 |
| ATTGTTTG | -0.0476 |
| TCAGTTCA | -0.0234 |

| Sequence | PBM E-score |
| --- | --- |
| GTGTGAAC | 0.174 |
| AACCCTGT | -0.0902 |
| AAGGTAAC | 0.136 |
| ACTTGCAA | 0.13 |
| TGGGCACA | -0.217 |
| ATGGGCAA | 0.0979 |
| TCGACAGA | -0.0571 |
| CGCGACCC | -0.0694 |
| CAATTCTG | -0.268 |
| TGCTAAAA | -0.0918 |
| GCTGAATA | -0.0745 |
| AATGGTCA | -0.0859 |
| AAAAAAGC | -0.0973 |
| CACTATCC | -0.0732 |
| CCGATGGC | -0.0305 |
| GATCGGCA | -0.0334 |
| ATAACGCG | 0.153 |
| AACGCAAA | 0.104 |
| GCATTAAA | 0.0155 |
| CGGCGTAC | 0.265 |
| GATAGCGC | 0.0413 |
| AGATGGCC | -0.176 |
| ACTACTCG | 0.202 |
| CCGAAGGC | -0.125 |
| ACAAAAAT | 0.0728 |

| Sequence | PBM E-score |
| --- | --- |
| AACACCAT | 0.0402 |
| AGAAGTGA | -0.317 |
| ATCTTAGC | -0.0808 |
| CCACTGCC | -0.0251 |
| CTCAAGAA | -0.174 |
| GGATGAAA | -0.138 |
| CATGGAAC | -0.201 |
| CTTCTAGC | -0.178 |
| AGCAGTTA | -0.0875 |
| AATACCTC | -0.0568 |
| CTTCTCTA | -0.285 |
| AAGCCGCC | -0.317 |
| ACTAAGGG | -0.0941 |
| AGAGTACC | -0.189 |
| ATGATCAC | 0.044 |
| AACATATT | -0.00989 |
| GGTCATTA | -0.123 |
| ACGCCGCT | 0.118 |
| CACCGTGA | -0.216 |
| ACCCGCAG | -0.0153 |
| AAACCTAC | -0.0282 |
| CATAGTCC | -0.229 |
| AGAACCAT | 0.0254 |
| GATCTGCA | -0.163 |
| TAATTTAA | 0.0941 |

| Sequence | PBM E-score |
| --- | --- |
| ACGCAAGC | 0.0194 |
| TCTTCTAA | 0.0621 |
| CAGATGCG | -0.173 |
| TTCGGCAA | 0.153 |
| GTTTCATA | 0.0539 |
| CGCAACGA | 0.368 |
| ATTTCAGA | -0.159 |
| AACTTCGG | 0.0166 |
| CGTTCCAA | 0.329 |
| TAAGAAAA | 0.109 |
| GTTGAACA | -0.0299 |
| GGTCCCCA | -0.24 |
| AGCCCTCA | -0.0686 |
| GCCCGTAC | 0.366 |
| CCACAAAC | 0.185 |
| CTCAAAAA | -0.123 |
| AAACTAGG | -0.0517 |
| ACGCTCAT | -0.021 |
| CGCTACGC | 0.136 |
| AAAGGGAC | -0.183 |
| ATTTCGGG | -0.185 |
| GGTCTGCA | -0.156 |
